Reference: PubChem BioAssay AID463173 (ICCB-Longwood Screening Facility, Harvard Medical School, 2010)
About 1,700 (3.3%) of roughly 52,000 compounds were called active. Rule as the data show it: active = survival mostly below about 52% (no sharp cut-off); inactive = mostly above about 56%. The list shows a part of the results.

The compounds below were run on Wild type (assay: growth inhibition of S. aureus wild type versus tarO mutant, primary screen, teichoic acid synthesis inhibitors, RN4220, OD600 (AID 463173)). Conditions: S. aureus RN4220 wild type/DeltatarO growth, OD600, 18 h, active compounds read low, screened at 18.75 µg/mL (by protocol).

| Compound | survival |
| --- | --- |
| Cc1nn2c(=O)cc(COC(=O)c3ccccc3NC(=O)COc3ccccc3C)nc2s1 | inactive: 85% |
| O=C(NCc1ccccc1F)c1ccc(CSc2nc3cccnc3n2Cc2ccccc2)cc1 | inactive: 78% |
| COC(=O)c1cc2sc(Cl)cc2n1CC(=O)Nc1cc(C)cc(C)c1 | inactive: 88% |
| COc1ccc(OC)c(CNc2nc3ccc(C)cc3n3nnnc23)c1 | inactive: 85% |
| CCc1ccc(NC(=O)CS(=O)CC(=O)Nc2ccc(F)cc2F)cc1 (stereo not drawn) | inactive: 105% |
| COc1ccc(OC)c(NC(=O)[C@H](CSCc2ccccc2)N2Cc3ccccc3C2=O)c1 | inactive: 117% |
| N#Cc1nc(-c2ccc(COc3ccccc3)o2)oc1N1CCCCC1 | inactive: 72% |
| COC(=O)c1cc2occc2n1CC(=O)Nc1ccc(N(C)C)cc1 | inactive: 96% |
| Cc1ccc(CNC(=O)Cn2c(=O)n(-c3ccc(C)cc3)c(=O)c3c2c2cc(C)ccc2n3C)cc1 | inactive: 152% |
| COC(=O)c1c(N)n(-c2ccc(OC)c(OC)c2)c2nc3ccccc3nc12 | inactive: 67% |
| CCCCCC1CC(CC(C)C(=O)Nc2nncs2)C(=O)O1 (stereo not drawn) | inactive: 116% |
| N#CC1=C2SCN(C3CCCCC3)CN2C(=O)CC1c1ccc(Cl)cc1 (stereo not drawn) | inactive: 81% |
| Cc1ccccc1NC(=O)Cn1c(=O)n(Cc2ccccc2)c(=O)c2c(C)c(C)sc21 | inactive: 126% |
| CCC(Sc1nnc2c3ccccc3n(CC)c2n1)C(=O)Nc1nnc(C(C)C)s1 (stereo not drawn) | inactive: 68% |
| COc1ccc(-c2cc3nc(C4CCN(C(=O)OC(C)(C)C)CC4)c(C(=O)Nc4cc(C)cc(C)c4)cn3n2)cc1 | inactive: 79% |
| Cn1c(=O)cc(SCC(=O)N2CCN(c3ccccc3F)CC2)c2ccccc21 | inactive: 73% |
| COc1ccc2c(CNCCc3cccs3)c(C(=O)O)n(Cc3ccc(F)cc3Cl)c2c1 | inactive: 115% |
| CCCCN1CC(c2nc3ccccc3n2CCCCOc2cccc(C)c2C)CC1=O (stereo not drawn) | active: -13% |
| CCOc1ccc(CN(CCc2ccc3c(c2)OCO3)Cc2cc(OC)c(OC)cc2OC)cc1 | inactive: 49% |
| N#CCCn1cc(CO)c(-c2ccccc2)n1 | inactive: 115% |
| CCOc1ccc(NC(=O)CC2C(=O)N(c3cccc(C)c3)C(=O)N2Cc2cccs2)cc1 (stereo not drawn) | inactive: 85% |
| CCCN1CCN(CCCNC(=O)c2ccc3nc(Cc4ccccc4)oc3c2)CC1 | inactive: 75% |

| Compound | survival |
| --- | --- |
| COc1ccc(C)cc1NC(=O)c1cc(S(=O)(=O)N2CCCCC2)c[nH]1 | inactive: 82% |
| COc1cc(NC(=O)CCc2c(C)nn(-c3ccc(N4CCCCC4)nn3)c2C)cc(OC)c1OC | inactive: 80% |
| Cc1cc(C)cc(NC(=O)CCCc2nc(-c3ccco3)no2)c1 | inactive: 96% |
| Cc1cc(-n2c(C)nc3ccccc3c2=O)ccc1NC(=O)c1ccccc1[N+](=O)[O-] | inactive: 88% |
| COc1cccc(CCNC(=O)c2c(O)nc3c(C)cccn3c2=O)c1 | inactive: 121% |
| CC(Sc1nnc2ccc3ccccc3n12)C(=O)Nc1ccc(Cl)cc1 (stereo not drawn) | inactive: 80% |
| CCC1(CC)Cc2ccccc2-c2nc(NCCCO)[nH]c(=O)c21 | inactive: 106% |
| CCCc1cc(=O)[nH]c(Nc2cc(C)ccc2OC)n1 | inactive: 86% |
| C=CC(=O)NC(C)(C)Cc1ccccc1 | inactive: 112% |
| Cc1cc2ccc(C)c(C)c2nc1SCC#N | inactive: 112% |
| CCc1ccc(NC(=O)CC2C(=O)N(c3cccc(OC)c3)C(=O)N2Cc2ccc(F)cc2)cc1 (stereo not drawn) | inactive: 73% |
| COc1ccccc1NC(=O)Cn1c(SCC(=O)Nc2ccc(F)cc2)nc2ccccc21 | inactive: 73% |
| O=C(NCCCN1CCOCC1)c1cc2ccccc2oc1=O | inactive: 91% |
| Cc1nc2ccn(Cc3ccccc3)c(=O)c2cc1C(=O)N1CCN(c2ccc(F)cc2)CC1 | inactive: 66% |
| CCc1ccc(NC(=O)CC2C(=O)N(c3cccc(C)c3)C(=O)N2Cc2ccc(F)cc2)cc1 (stereo not drawn) | inactive: 72% |
| Cc1cc(NC(=O)n2ncc3c(C)cccc32)ccc1Br | inactive: 95% |
| COCCc1nn2c(=O)cc(COC(=O)C(c3ccccc3)c3ccccc3)nc2s1 | inactive: 134% |
| CCOC(=O)c1cnc2cc(-c3ccc(OCC)cc3)nn2c1-c1ccccc1 | inactive: 92% |
| CC(CN(C)C)OC(=O)c1ccc2c(c1)OCO2 (stereo not drawn) | inactive: 110% |
| Cc1cccc(N2CCN(C(c3cc4cc5c(cc4[nH]c3=O)OCO5)c3nnnn3CC3CCCO3)CC2)c1C (stereo not drawn) | inactive: 102% |
| COc1ccc(NC(=O)CSc2nccn2Cc2ccc3c(c2)OCO3)cc1 | inactive: 49% |
| COc1ccc(C)cc1NC(=O)C(=O)NCC(c1cccnc1)N1CCc2ccccc21 (stereo not drawn) | inactive: 67% |

| Compound | survival |
| --- | --- |
| CN(C)CCNC(=O)CN1C(=O)COc2ccc(S(=O)(=O)N3CCCC3)cc21 | inactive: 80% |
| Cc1cc(C)c(NC(=O)CSc2ccc(-c3ccccn3)nn2)c(C)c1 | inactive: 115% |
| CCOc1ccccc1NC(=O)c1c(NC(=O)COc2ccccc2)sc2c1CCCC2 | inactive: 74% |
| COc1ccc(C2=Nc3ccccc3NC(c3cccs3)=N2)cc1 | inactive: 61% |
| OCC(O)CNC(=S)NC1CCCCC1 (stereo not drawn) | inactive: 107% |
| Cc1ccc(-n2c3c(cc(C(=O)Nc4ccccc4C(N)=O)c2=O)C(=O)CC(C)(C)C3)cc1 | inactive: 76% |
| O=C1CC(c2ccccc2)Sc2ccccc2N1Cc1ccc(F)cc1 (stereo not drawn) | active: 16% |
| Cc1ccc(-c2cc(C(=O)Nc3ccc(SC(F)F)cc3)no2)cc1F | inactive: 86% |
| COc1ccccc1CNC(=O)c1c[nH]c2ccc(S(=O)(=O)Nc3cc(C)cc(C)c3)cc2c1=O | inactive: 67% |
| CCCOc1ccc(CNC(=O)CCCn2ncn3c(cc4sc(CC)cc43)c2=O)cc1 | inactive: 88% |
| CCNS(=O)(=O)c1ccc(NC(=O)CSc2nc(-c3ccco3)cc(C(F)(F)F)n2)cc1 | inactive: 56% |
| COCC[N+]1(C)CCCCC1 | inactive: 100% |
| CCCOc1ccc(NC(=O)CC2C(=O)N(c3ccccc3)C(=O)N2Cc2ccco2)cc1 (stereo not drawn) | inactive: 130% |
| COc1cccc(NC(=O)CCC(=O)N2Cc3ccccc3Oc3ncccc32)c1 | inactive: 83% |
| Cc1ccc(CNC(=O)CSc2nc3ccsc3c(=O)n2Cc2ccccc2F)cc1 | inactive: 121% |
| CC(C)CNS(=O)(=O)c1ccc(S(=O)(=O)N2CCCC(C(=O)NC3CCCCC3)C2)cc1 (stereo not drawn) | inactive: 110% |
| Cc1ccc(-n2cc(-c3ccccc3)c3c(N4CCCCC4)ncnc32)cc1 | inactive: 80% |
| CC(C)OC(=O)c1cccc(NC(=O)Cn2nnc3sc4c(c3c2=O)CCCC4)c1 | inactive: 82% |
| Cc1cccc(Nc2nnc(-c3ccc(C)c(S(=O)(=O)N4CCCCC4)c3)c3ccccc23)c1 | inactive: 105% |
| Cc1ccc(S(=O)(=O)N2CCN(C(=O)c3cc(-c4ccc(Br)cc4)n[nH]3)CC2)c(C)c1 | inactive: 71% |
| O=C1C2C(C(=O)N1CCO)C1C=CC2C12CC2 (stereo not drawn) | inactive: 120% |
| COC(=O)C1(CCSC)NC(c2ccc(N(C)C)cc2)C2C(=O)N(C)C(=O)C21 (stereo not drawn) | inactive: 111% |

| Compound | survival |
| --- | --- |
| CCN(CC)c1ccc(NC(=O)c2cccn2-c2nnc(N3CCCCC3)s2)c(C)c1 | inactive: 82% |
| Cc1c(Cl)cccc1-n1ncc(C(=O)N2CCN(c3ncccn3)CC2)c1C1CCN(C(=O)OC(C)(C)C)CC1 | inactive: 81% |
| Cc1ccc(NC(=O)C(Cc2ccccc2)NS(=O)(=O)c2ccc3c(c2)c(=O)n(C)c(=O)n3C)c(C)c1 (stereo not drawn) | inactive: 68% |
| CCOc1ccccc1Nc1nc2ccccc2c2nncn12 | inactive: 83% |
| COc1cccc2c1cc1c(=O)n(CC(=O)N3CCN(c4cccc(C)c4C)CC3)nc(C)n12 | inactive: 87% |
| CCc1cccc(NS(=O)(=O)c2c(C)[nH]c(=O)[nH]c2=O)c1 | inactive: 84% |
| COc1ccc(CCNC(=O)CCc2c(C)nc3c4c(C)cc(C)nc4nn3c2C)cc1OC | inactive: 86% |
| CCOc1ccc(CNC(=O)c2ccc3oc(=O)n(Cc4ccccc4)c3c2)cc1 | inactive: 63% |
| CC(=O)c1c(C)oc2ccc(N(C(=O)Oc3ccccc3)S(=O)(=O)c3ccc(Cl)cc3)cc12 | inactive: 77% |
| Cc1ccc(Cn2nnc3c(=O)[nH]c(C4CCN(C(=O)Cc5ccccc5F)CC4)nc32)cc1 | inactive: 94% |
| Cc1ccc(CNC(=O)C2CCN(S(=O)(=O)N3CCCCC3)CC2)cc1 | inactive: 68% |
| COc1ccc2c(c1)cc(CNc1ccc(OC)c(OC)c1)c(=O)n2CC(=O)Nc1ccccc1C | inactive: 78% |
| Fc1ccc(N2CCN(c3nc4ccccc4c4nc(-c5ccccc5)nn34)CC2)cc1 | inactive: 82% |
| CC1CCN(S(=O)(=O)c2ccc3c(c2)CCN3C(=O)Nc2ccccc2Br)CC1 | inactive: 88% |
| Cc1ccc(S(=O)(=O)Nc2cccc(-c3ccc(N4CCC(C)CC4)nn3)c2)s1 | active: -3% |
| COc1ccc(OCC(=O)Nc2ccc(-c3nc4cc(C)cc(C)c4o3)cc2)cc1 | inactive: 94% |
| Cc1ccc(NC(=O)C2CCCN(S(=O)(=O)c3ccc4[nH]c(=O)ccc4c3)C2)cc1Cl (stereo not drawn) | inactive: 86% |
| COc1ccc(CC(=O)Nc2nc3c(s2)CC(C)CC3)cc1 (stereo not drawn) | inactive: 90% |
| COc1ccc2c(c1)c1c(c(=O)n(CCc3ccccc3)c(=O)n1Cc1cccc(Cl)c1)n2C | inactive: 60% |
| CC(=O)Nc1cccc(NC(=O)c2cc3c(=O)n4cccc(C)c4nc3n2C)c1 | inactive: 113% |
| O=C(NCc1cccc(Cl)c1)c1c2c(nc3ccccc13)C(=O)N(C1CCCCC1)C2 | inactive: 148% |
| CC1CN(C(=O)N2CCC(C(=O)NCCCc3ccccc3)CC2)c2cc(Cl)ccc2O1 (stereo not drawn) | inactive: 84% |
